Test results as given in PubChem BioAssay AID1460 (National Center for Advancing Translational Sciences (NCATS), 2008).
Where “and” joins values, the source holds several entries; their conditions need not be identical. Equal values may be shown once. About 5,800 (2.1%) of roughly 270,000 compounds were called active. The shares of active, inactive and inconclusive entries below differ from those in the screen. The call rests on the fitted dose curve; in most records, active means well fitted inhibition curve with a large enough effect; inconclusive means small, poorly fitted or top-dose-only effect; inactive means flat fitted curve, though single readings scatter. Potencies beside an inconclusive call are fits to weak or partial responses and may not hold up.
Further: nearly all actives have a fitted effect of over 55% in size.
On the % scale 0 is the no-effect control and ±100 the full control effect; potency means the concentration at half of the fitted maximal effect; tags describe the fitted curve by direction and shape.

Each compound was assayed against Microtubule-associated protein tau (Homo sapiens) (UniProt P10636) (assay: qHTS for Inhibitors of Tau Fibril Formation, Thioflavin T Binding). Settings: recombinant tau K18 P301L (four-repeat tau fragment), heparin-induced fibrillization, ThT fluorescence; series mostly up to 57.4 µM; activity, negative = inhibition: at the top concentration.
Sequence of UniProt P10636 (P10636 whole entry, looked up, the tested form may be a part): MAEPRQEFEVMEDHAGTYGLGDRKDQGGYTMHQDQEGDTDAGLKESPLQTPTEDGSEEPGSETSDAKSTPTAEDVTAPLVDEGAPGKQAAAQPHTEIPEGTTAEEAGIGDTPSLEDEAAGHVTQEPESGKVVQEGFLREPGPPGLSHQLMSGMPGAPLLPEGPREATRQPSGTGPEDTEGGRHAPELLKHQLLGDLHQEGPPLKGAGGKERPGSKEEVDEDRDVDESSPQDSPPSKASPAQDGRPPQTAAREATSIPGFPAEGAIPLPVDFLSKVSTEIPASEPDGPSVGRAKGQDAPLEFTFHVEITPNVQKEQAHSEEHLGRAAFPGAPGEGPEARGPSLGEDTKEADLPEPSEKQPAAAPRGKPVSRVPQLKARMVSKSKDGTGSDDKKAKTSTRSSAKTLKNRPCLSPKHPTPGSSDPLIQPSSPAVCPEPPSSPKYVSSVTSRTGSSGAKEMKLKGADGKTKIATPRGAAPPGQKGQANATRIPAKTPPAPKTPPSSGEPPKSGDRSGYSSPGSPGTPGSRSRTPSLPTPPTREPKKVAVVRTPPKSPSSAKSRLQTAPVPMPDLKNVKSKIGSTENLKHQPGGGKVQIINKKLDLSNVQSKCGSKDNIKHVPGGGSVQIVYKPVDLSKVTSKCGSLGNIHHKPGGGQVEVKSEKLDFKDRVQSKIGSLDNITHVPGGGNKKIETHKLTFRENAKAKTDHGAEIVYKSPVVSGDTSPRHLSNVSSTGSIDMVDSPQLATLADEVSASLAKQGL
Method in brief: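 Heparin-induced (20 uM) aggregation of recombinant human K18 P301L tau, 15 uM unlabeled with 0.24 uM labeled, pH 7 acetate buffer, 6 hr at 37 C with compound. Fibrils quantified by 30 uM ThT fluorescence after 1 hr ambient incubation.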
For `COc1ccc(/C=C/C(=O)NCc2ccc(F)cc2)cc1S(=O)(=O)N1CCOCC1`, the Potency was inconclusive: 0.316 µM [activator, full curve, poor fit].
`O=C(c1cnn(-c2nc3ccccc3s2)c1)c1ccccc1O` was tested, and the Potency was inconclusive: 1.78 µM [inhibitor, full curve].
In the case of `Cc1ccc(OCC(=O)NCCc2c[nH]c3ccccc23)cc1`, the Potency is reported as inconclusive: 20 µM [inhibitor, single point].
For `CCS(=O)(=O)c1c(Nc2ccc(F)c(Cl)c2)sc(C(=O)c2ccccc2)c1N`, the Potency was inconclusive: 7.94 µM [inhibitor, single point].
`O=c1[nH]c2c(s1)C(c1ccccc1)C1C3CCC(C3)C1S2` (centres undefined) was tested, and the Potency was inconclusive: 15.8 µM [inhibitor, partial curve].
For `Cn1cccc1/C=C1\SC(=S)N(NC(=O)c2ccccc2Cl)C1=O`, the Potency was active: 11.2 µM.
`Cc1cccc(NC(=O)Cn2c(=O)n(Cc3ccc4c(c3)OCO4)c(=O)c3ccccc32)c1` was tested, and the Potency was inconclusive: 17.8 µM [activator, partial curve].
In the case of `COc1ccc(CCN2C(=O)CC(NCCc3ccc(S(N)(=O)=O)cc3)C2=O)cc1OC` (centres undefined), the “activity, negative = inhibition” value is reported as inactive: -10.1%.
For `Cc1cccc(N2CCN(C(=O)Nc3ccc(F)cc3)CC2C)c1` (centres undefined), the “activity, negative = inhibition” value was inactive: -1.31%.
In the case of `COC(=O)c1ccc(CSc2nc3ccccc3o2)cc1`, the Potency is reported as inconclusive: 3.16 µM [inhibitor, partial curve].
With `COc1ccc(S(=O)(=O)NC2(C(F)(F)F)NC(=O)N(CCc3ccccc3)C2=O)cc1` (centres undefined) the “activity, negative = inhibition” value was inactive: -3.36%.
In the case of `Cc1ccc(NC(=O)COC(=O)C2CC2)c(Br)c1`, the “activity, negative = inhibition” value is reported as inactive: -7.48%.
In the case of `CCCCCSc1nnc2c(n1)OC(c1ccc(C)s1)N(C(C)=O)c1ccccc1-2` (centres undefined), the Potency is reported as inconclusive: 10 µM [inhibitor, partial curve].
For `Cc1cc(-n2c(C)cc(C(=O)CSc3ccc4c(c3)OCCO4)c2C)no1`, the Potency was inconclusive: 28.2 µM [inhibitor, partial curve].
With `O=C(NCCSCc1ccco1)Nc1cccc(Cl)c1` the “activity, negative = inhibition” value was inactive: 0.897%.
`COC(=O)c1c(NC(=S)Nc2ccc(CC(=O)O)cc2)sc(C)c1C` was tested, and the Potency was inconclusive: 11.2 µM [inhibitor, single point].
In the case of `C=C(C)C(=O)OCC1CN2C(CCC(C)C2c2ccc(Br)cc2)C(=O)O1` (centres undefined), the activity, negative = inhibition is reported as inactive: -2.31% [at 11.5 µM] and inactive: -17.4% [at 11.5 µM] and inactive: -5.67% [at 11.5 µM].
For `CCNC(=O)C(CCSC)NS(=O)(=O)c1ccc(C)cc1` (centres undefined), the “activity, negative = inhibition” value was inactive: 1.45%.
In the case of `CCN1CCN(c2cc(C)c3cc(NC(=O)c4cc(OC)cc(OC)c4)ccc3n2)CC1`, the Potency is reported as inconclusive: 8.91 µM [inhibitor, partial curve].
For `CN(C)S(=O)(=O)c1ccc(-c2csc(N/N=C/c3ccc(O)cc3)n2)cc1`, the Potency was active: 14.1 µM.
`C#CCOCCOCCOCCNc1nc(N2CCN(C(=O)[C@H](CCCCN)n3cc([C@@H](N)CO)nn3)CC2)nc(N2CCN(C(=O)[C@H](Cc3ccc(O)cc3)n3cc([C@@H](N)CC(C)C)nn3)CC2)n1` was tested, and the Potency was inconclusive: 0.199 µM [activator, single point].
For `O=S(Cc1cc(Sc2ccccc2)nc(-c2ccccc2)n1)c1ccccc1` (centres undefined), the Potency was inconclusive: 17.8 µM [inhibitor, partial curve].
With `COC(=O)c1cnn(-c2nc3c(C)cccc3s2)c1C` the Potency was inconclusive: 7.08 µM [inhibitor, partial curve].
For `COc1ccc(CCNC(=O)CCCOc2ccc(C)cc2)cc1OC`, the Potency was inconclusive: 25.1 µM [inhibitor, single point].
`CCOC(=O)Cc1csc(N/N=C/c2ccc(Cl)cc2)n1` was tested, and the Potency was inconclusive: 10 µM [inhibitor, partial curve].
In the case of `CCOC(=O)CCC(NC(=O)CCC(=O)NC(CCC(=O)OCC)C(=O)OCC)C(=O)OCC` (centres undefined), the “activity, negative = inhibition” value is reported as inactive: -2.91%.
`CC1CCN(S(=O)(=O)c2ccc3c(c2)N(CC(=O)Nc2ccc(F)c(Cl)c2)C(=O)CO3)CC1` was tested, and the “activity, negative = inhibition” value was inactive: 7.31%.
With `Cc1ccc(S(=O)(=O)N2CCN(C(=O)C3Cc4ccccc4CN3C(=O)c3ccco3)CC2)cc1` (centres undefined) the “activity, negative = inhibition” value was inactive: -4.02%.
For `COc1ccc(-c2nc3ccc(C(=O)NCc4ccc(C)cc4)cc3nc2-c2ccc(OC)cc2)cc1`, the “activity, negative = inhibition” value was inactive: -1.65%.
For `CCOc1cc(CNC(C)(C)CO)cc(Br)c1OCc1ccc(Cl)cc1Cl`, the “activity, negative = inhibition” value was inactive: -9.86%.
For `COCCCNC(=S)NNC(=S)Nc1cccc(Cl)c1`, the Potency was inconclusive: 7.94 µM [inhibitor, partial curve].
With `Cn1nc(C(=O)Nc2ccccc2C#N)c2c1-c1ccccc1SC2` the “activity, negative = inhibition” value was inactive: -15.5%.
For `COc1cccc(CN(C)C(=O)Nc2cccc(C(F)(F)F)c2)c1OC`, the “activity, negative = inhibition” value was inactive: -5.65%.
For `COc1cc(CC(=O)OCC(=O)Nc2ccc(S(=O)(=O)N3CCCC3)cc2)cc(OC)c1OC`, the “activity, negative = inhibition” value was inactive: -10.3%.
`CCc1ccc(N=c2c([N+](=O)[O-])nn(-c3ccccc3)n2O)cc1` was tested, and the Potency was inconclusive: 28.2 µM [inhibitor, partial curve].
For `CCc1ccccc1NC(=O)Cn1c(=O)ccc2cc(S(=O)(=O)N3CCC(C)CC3)ccc21`, the “activity, negative = inhibition” value was inactive: 3.52%.
In the case of `Cc1ccc(CSc2nnc3c(n2)OC2(Nc4ccccc4-3)C(=O)Nc3ccc(F)cc32)cc1` (centres undefined), the Potency is reported as active: 28.2 µM.
In the case of `N#CC12COC3(CCCCC3C1(C#N)C#N)OC2=N` (centres undefined), the Potency is reported as active: 14.1 µM.
`COc1ccc(N2C(=O)CCSC23C(=O)N(Cc2ccc(F)cc2)c2ccccc23)cc1Cl` (centres undefined) was tested, and the Potency was inconclusive: 15.8 µM [inhibitor, partial curve].
For `COc1ccc(-c2nc(C)ncc2N=Nc2ccccc2)cc1`, the Potency was inconclusive: 12.6 µM [inhibitor, partial curve].
In the case of `O=C(COc1ccc(Cl)cc1)Nc1nnc(-c2ccc3c(c2)CCCC3)o1`, the “activity, negative = inhibition” value is reported as inactive: 9.39%.
`OCCCCNc1cccc2ccccc12` was tested, and the Potency was inconclusive: 31.6 µM [inhibitor, single point].
In the case of `COC(=O)c1c(NC(=O)/C(C#N)=C/c2ccc(OC)cc2)sc2c1C(C(=O)OC)CC2` (centres undefined), the Potency is reported as inconclusive: 2.82 µM [inhibitor, full curve].
For `COc1ccc(CCNC(=O)CSc2cn(CCNC(=O)c3ccc(OC)c(OC)c3)c3ccccc23)cc1OC`, the Potency was inconclusive: 3.98 µM [inhibitor, full curve].
In the case of `COc1cccc(NS(=O)(=O)c2cc(-c3cnc(C4CC4)o3)ccc2C)c1`, the “activity, negative = inhibition” value is reported as inactive: -2.03%.
For `COc1cc2c(cc1NC(=O)CSc1nccn1C)oc1ccccc12`, the Potency was inconclusive: 14.1 µM [inhibitor, partial curve].
In the case of `COc1cc(C(=O)NCCSc2c(C)[nH]c3ccccc23)cc(OC)c1OC`, the Potency is reported as inconclusive: 25.1 µM [inhibitor, partial curve].
For `CN(C)CCC(=O)c1ccc(Cl)cc1`, the Potency was inconclusive: 17.8 µM [inhibitor, partial curve, poor fit].
`CCOc1ccc(Nc2oc(/C=C/c3cc(OC)c(OC)c(OC)c3)nc2C#N)cc1` was tested, and the Potency was inconclusive: 3.16 µM [inhibitor, full curve, poor fit].
For `CCOc1ccccc1N1CC(c2nc3ccccc3n2CCCCOc2ccccc2)CC1=O` (centres undefined), the Potency was inconclusive: 28.2 µM [inhibitor, single point].
`COc1ccccc1C1=Nn2c(nc3sc(C(=O)Nc4ccccc4Cl)c(C)c3c2=O)SC1` was tested, and the Potency was inconclusive: 0.0282 µM [inhibitor, full curve].
In the case of `CC(C)OCCCN1C=C2C(=O)C(C)(OC(=O)C3CCCC3)C(=O)C=C2C=C1c1ccsc1` (centres undefined), the Potency is reported as inconclusive: 8.91 µM [inhibitor, single point].
In the case of `Cc1ccc(S(=O)(=O)NN2C(=O)/C(=C/c3cccn3C)SC2=S)cc1`, the Potency is reported as active: 10 µM.
`c1ccc(-c2nnc3sc(CN4CCc5ccccc54)cn23)cc1` was tested, and the “activity, negative = inhibition” value was inactive: 4.84%.
For `NC(=O)c1nn(-c2cccc(Cl)c2)c(=O)cc1O`, the “activity, negative = inhibition” value was inactive: 5.2%.
With `O=C(CSC(=S)N1CCOCC1)Nc1nc(=O)c2ccccc2s1` the “activity, negative = inhibition” value was inactive: -14.8%.
With `O=C(NNC(=S)NC(=O)c1ccco1)c1ccc(NC(=O)c2ccccc2)cc1` the Potency was inconclusive: 3.55 µM [inhibitor, full curve].
In the case of `CC(=O)c1cc2c(cc1N/C(=N/S(=O)(=O)c1ccc(C)cc1)c1ccc(Cl)cc1)OCO2`, the Potency is reported as inconclusive: 17.8 µM [activator, partial curve].
`N#CC(C#N)=Cc1ccc(NC(=O)c2ccc(Br)cc2)cc1` was tested, and the Potency was inconclusive: 1.41 µM [inhibitor, partial curve].
With `C=CCOc1ccc(/C=C2\SC(=Nc3cccnc3)NC2=O)cc1` the Potency was inconclusive: 4.47 µM [inhibitor, full curve].
`CSc1nc(N)nc(SCC(=O)c2ccccc2)c1C#N` was tested, and the Potency was inconclusive: 12.6 µM [inhibitor, partial curve].
`CCCc1cc(N2CCN(c3cc(Cl)ccc3C)CC2)n2cnnc2n1` was tested, and the Potency was inconclusive: 25.1 µM [inhibitor, partial curve].
For `CN(c1ccccc1)S(=O)(=O)c1ccc(NC(=O)c2ccc(-c3ccccc3)cc2)cc1`, the Potency was inconclusive: 10 µM [activator, partial curve].
`CCOc1ccc(NC(=O)c2cn(-c3ccc(OCC)cc3)c(=O)c3cc(OC)c(OC)cc23)cc1` was tested, and the Potency was inconclusive: 10 µM [inhibitor, partial curve].
With `CCN(CC)S(=O)(=O)c1ccc(N2CCCC2)c(NS(=O)(=O)c2ccc(OC)cc2)c1` the “activity, negative = inhibition” value was inactive: -10.4%.
In the case of `CCCN1C(=O)C(Cc2nc3ccccc3c(=O)n2CC)c2ccccc21` (centres undefined), the “activity, negative = inhibition” value is reported as inactive: 5.52%.
In the case of `O=C(NC(=S)Nc1ccc(CN2CCOCC2)cc1)c1ccc([N+](=O)[O-])cc1Cl`, the Potency is reported as inconclusive: 20 µM [inhibitor, single point].
For `COc1ccc(CC(=O)c2c(O)cc(O)cc2O)cc1OC`, the “activity, negative = inhibition” value was inactive: -12.3%.
With `CCC1=[N+](CC(=O)c2ccc(C)cc2)CCn2c(C)ccc21` the Potency was inconclusive: 14.1 µM [inhibitor, partial curve, poor fit].
